According to the supplement of paper PMC10185492:
The other results are listed elsewhere or left out. These are enrichments in a pooled selection; single values are uncertain.

test system: SARS-CoV-2 3CLpro (nsp5); experiment: substrate phage enrichment score (protease-eluted vs HEPES control, +1 offset) (ratio); higher = better cleaved substrate; conditions: selection round: 3; protease elution time: 0.5 h
Experimental: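 Random heptapeptide substrate phage display (M13 pIII fusion, heptapeptide between an N-terminal biotinylated AviTag GLNDIFEAQKIEWHE and pIII; phages immobilised on streptavidin) eluted by cleavage with 50 nM protease in 20 mM HEPES at 37 °C. Selected phages were NGS sequenced, and the enrichment score is (reads in protease sample + 1)/(reads in HEPES blank-selection control + 1).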

Substance | substrate phage enrichment score
ENPRNAD | 11.2
CNAAAHH | 1.21
PSRRRNG | 1.3
SNLPALQ | 32.5
YQASGAR | > 21
DMGPCIR | 2.3
LKNAALQ | 39.3
FKYPGDR | > 28
STHQKKC | > 26
TNKPAQV | 1
LATFRGS | 4.54
GSCKRQS | > 44
LQGIHRS | 0.0625
CYEAGWH | > 25
PSKPTLH | > 77
SCRQKPA | > 22
YTSTPQE | 8
ETCPLPA | 13.5
LETHGGS | > 25
ALNFQGG | 3.29
PDCLMCA | 2.18
HKAAHHH | 0.421
CSTGMVN | 9.75
LAAAHHH | 0.965

Substance | substrate phage enrichment score
HGCSGLQ | > 25
CQSDTYG | 3.68
GNAQSWQ | > 23
RQPPAAN | 2.14
NDAAHHH | 1.35
VKAAHHH | 2.12
AGGQLKA | > 23
CEQGIWY | 2.62
THSRLCP | 1
RKPCLVQ | 4.56
ERDGKAP | > 23
IDAAHHH | 1.19
HQNFERA | > 23
ASPTTLQ | > 28
SKTPVKT | 5.11
LQGGSAA | 1.31
CFSPLWP | 4.9
LLLNSGR | 11
DISALMH | 10
AESSKAR | > 23
ESNMLHQ | > 23
RSALTRQ | > 24
MTAAHHH | 1.54
SSSEIRQ | 30

Substance | substrate phage enrichment score
ESWGCQR | > 23
ENFWGPR | 6
RRAPVLQ | > 25
GAMNGRS | 6.33
HIPLTLG | > 27
VRQEPSE | 3.4
SPAAEMS | 0.222
SPGIVES | 3
HLNFQGG | 0.842
PVLPPAQ | 4.75
WESKCIP | > 29
RNPMSKA | 2
VSGEPWV | 0.533
TPAGPNN | 13
ALYFQGG | 1.5
SSETQES | 1.38
TCLSHGY | 3.4
WTRLQGN | > 23
CILQALG | > 41
NRKSNLQ | 16
GPAAHHH | 0.657
VLSMPVH | 39.5
GQSMPAG | > 35
TSLQSGS | 60

Substance | substrate phage enrichment score
SVLQCRP | > 22
QQQPTIR | > 21
SHGKVRV | 3
SSLTQGV | > 24
MTPHTKQ | > 24
PPVKNPR | 2.33
PSSIHRE | > 21
YGAKNVP | > 21
AREKSTW | 3.38
NKPGLTS | > 50
RQLMEKP | > 31
ESAAHHH | 0.722
PAPIHFR | > 23
CRAAAHH | 2.05
DLSAELQ | > 30
LTRLQSE | 87.8
KGSVVLH | > 23
GYRHGAC | 3.8
NRHGNYW | 6.33
HQALCPV | 0.808
SNEAAHH | 8.6
ESRTCCA | 2.14
VSSSPVT | 2.67
VSKSHRL | 11

Substance | substrate phage enrichment score
PRNVRLQ | > 38
TREESNQ | 1.36
NRPSQLR | 0.941
FRVVVRP | 0.8
AQNNSHR | 1.27
ANDATYG | > 27
CTGLSKM | > 66
CLPSLQG | 11
ELSSYLQ | > 38
CRAPHLK | 9.33
TSTWLQN | > 38
PIDRHWQ | 1.27
HHTPPTR | > 25
QWTPYQQ | > 34
ATAHHHH | 0.693
PDHGCVT | 21
TRTMPRL | > 42
HRGARLQ | > 30
QEWGPVL | > 23
MRPHIII | 1.13
ASHPWCL | 4.5
ATLNHLE | 7.5
DRETMQH | 2.67
LPTGTYS | > 21

Substance | substrate phage enrichment score
TQDTLTR | 0.579
EVRTPDK | 3.33
DSDRNVN | > 24
VSRLQSK | 29
DKATNLQ | > 25
QPYSLTQ | 4.2
TASCRLQ | > 60
PDEDAPQ | 10
SCCTHLQ | 11
ATKPADG | 2.07
QIRKDDG | > 48
AQTECAS | 13.7
MGCRRDL | 3.12
CIPGVKL | 7.67
SPSFGCT | > 22
ADPSFPQ | 7.33
SSASVGA | 1.06
SKLPRLQ | 63
TQIPNHR | 0.273
TQSHQRT | 8.67
AAAHHHH | 0.974
ASGYPVS | 0.846
YRPESVG | 6.33
VSAAHHH | 1.33

Substance | substrate phage enrichment score
LPTQGTM | 2.38
MAAAHHH | 1.09
QYCTGCR | > 93
AAAQQHH | 0.688
FRYRMWC | 1.6
TEQTPVT | > 27
ASLGKDQ | 1.9
NPALTPT | > 21
YSTKPLW | 6.17
VSYDVIQ | 0.75
AFRSELQ | 4.5
KGRAQRN | 1.75
VQSPPGS | 18
QFQECFR | 3.86
THTRTET | > 57
AVAAHHH | 0.6
TCRPKGN | 18
PCSLTDQ | > 25
RSRTLLQ | > 25
LQKMQTR | > 39
NHHHHGA | 1.12
HHHHHHG | 0.764
VTPFKQQ | 4.2
VAAAHHH | 1.08

Substance | substrate phage enrichment score
FAGTQPF | 0.786
DTVEPMS | 1.08
SRNLGWQ | 13.5
RKLPQLQ | 6.33
YTAAHHH | 0.826
VQVSGPA | 7.33
TWELLNR | 0.0952
QSIQGGS | > 44
LQCDEVT | 2
CPTAHHH | 1.22
GAAAHHH | 0.753
PAMPYVR | > 24
NNAAAHH | 1.69
RQRCDLH | 1.67
RTFSRLQ | > 22
DTAAAHH | 1.05
VRPHINI | 0.775
KGSPTLQ | > 60
AQKQASE | 4.44
ESAAAHH | 1.33
ARNLQGP | 15
YSKYCRC | > 26
HVLYEPM | > 21
LSFQGGS | 1.53

Substance | substrate phage enrichment score
TGSAAAH | 1
ASCKPIR | 12
HLEYWRY | > 28
KWQGSVI | > 26
VRCRLQA | 272
RHLNSSD | 16
HGAKLCP | 2.71
LFFQGGS | 10
AIPVWQA | 3.17
ENEPDSY | 2.48
SAAAHHL | 1.54
ESSGPSI | 2.55
CQRVTKP | 7
CFLLRKS | 10
NRFFQGG | 3
KKNNAYR | 3.38
TPYCSNT | 16
RAPAILQ | > 141
EESANAH | 3.14
QKRTPGN | 0.152
TATAHHH | 0.3
QLNEAGH | > 46
GPNTKLQ | > 58
KQGGDPQ | 1.53

Substance | substrate phage enrichment score
TTERCPS | 2.67
YGACQPT | 4.75
FHTQLQC | > 28
NDHTELQ | > 85
QLQAQHD | > 21
TAAPVFQ | > 25
GKCSLQS | > 27
DSGSVCE | 22
RDQQLNR | 4.3
DAAVLQA | > 22
KSGAGAC | > 37
LQQKFIQ | 30.7
AQSPTLQ | > 52
KYFQGGS | 0.979
LWRHGMP | > 75
CETVQPT | > 52
NQTSGRH | > 23
CIFHAPE | 2.27
